Experimental data: paper PMC6919601, “Identification of Plasmodium dipeptidyl aminopeptidase allosteric inhibitors by high throughput screening” (PLoS ONE, 2019)
Screen size: about 110,000 compounds; about 230 (0.21%) showed an effect of 50% or more. The list shows a part of the results.

These molecules were tested against DPAP1 (Plasmodium falciparum, UniProt Q8IIJ9) (assay: primary screen, percent inhibition; read by cleavage of a fluorogenic dipeptide substrate; higher = more effect of the substance).
DPAP1, sequence (Q8IIJ9 whole entry, looked up): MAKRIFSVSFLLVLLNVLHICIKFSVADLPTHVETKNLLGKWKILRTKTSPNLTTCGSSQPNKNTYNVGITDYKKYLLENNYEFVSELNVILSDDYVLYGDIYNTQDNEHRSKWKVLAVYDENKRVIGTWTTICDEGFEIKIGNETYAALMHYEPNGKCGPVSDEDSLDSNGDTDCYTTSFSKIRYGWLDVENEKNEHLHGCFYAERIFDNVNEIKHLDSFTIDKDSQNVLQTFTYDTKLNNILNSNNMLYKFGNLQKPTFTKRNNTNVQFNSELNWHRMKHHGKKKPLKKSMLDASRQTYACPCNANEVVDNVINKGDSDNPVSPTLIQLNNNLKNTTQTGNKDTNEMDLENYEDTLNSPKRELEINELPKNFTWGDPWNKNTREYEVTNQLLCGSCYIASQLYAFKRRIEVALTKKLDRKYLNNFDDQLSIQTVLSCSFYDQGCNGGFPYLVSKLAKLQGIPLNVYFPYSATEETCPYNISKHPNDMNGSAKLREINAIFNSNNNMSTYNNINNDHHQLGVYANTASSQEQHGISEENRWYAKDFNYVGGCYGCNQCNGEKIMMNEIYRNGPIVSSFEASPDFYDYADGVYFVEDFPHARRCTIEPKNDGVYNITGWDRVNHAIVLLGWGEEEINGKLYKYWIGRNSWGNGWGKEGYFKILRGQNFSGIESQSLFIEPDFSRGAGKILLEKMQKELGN
Design: species or system P. falciparum D10 trophozoite lysates; single well
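Further: 30 min substrate incubation versus DMSO and 10 µM JCP410 controls.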

In order of falling “% Inhibition @ 10 uM” value:
1. CC1CC(C)CN(CCCNC(=O)Cn2nc(Cc3cccnc3)c3ccccc3c2=O)C1 (centres unmarked)  21.1%
2. O=C(NCc1cccnc1)C1CCCN(Cc2cnn(-c3ccccc3)c2-n2cccc2)C1 (centres unmarked)  6.91%
3. CC(=O)c1c(C(C)=O)c(C)n(-c2ccc(C(=O)O)cc2)c1C  5.13%
4. COc1cc(OC)c(C2C3=C(O)CCCC3=Nc3nc(SC)nn32)cc1OC (centres unmarked)  4.86%
5. O=C(O)CCCCCNS(=O)(=O)c1cccc(C(=O)O)c1  4.86%
6. O=C(O)c1cc(Sc2ccccc2)nc2ccccc12  4.37%
7. Cc1ccc(C)c(NC(=O)OCCNC(=O)C2C(C=C(Cl)Cl)C2(C)C)c1 (centres unmarked)  4.07%
8. CC(C)CCNC(=O)C1CCCN(S(C)(=O)=O)C1 (centres unmarked)  3.79%
9. O=C(O)CC/N=C/c1c(O)oc2ccccc2c1=O  3.38%
10. CSc1ncc(C(=O)NCc2ccccc2C)c(-c2ccccc2)n1  2.74%
11. Cc1cccc2c(C(=O)O)cc(-c3cccc(Br)c3)nc12  2.09%
12. Cc1ccc(C(=O)Nc2ccc(NC(=O)c3ccccc3)cc2)cc1  1.96%
13. COc1ccc(S(=O)(=O)NCc2ccc(C(=O)N3CCN(c4ccccn4)CC3)cc2)cc1  1.9%
14. COC(=O)c1nnn(-c2cc(Cl)ccc2C)c1C(=O)OC  1.64%
15. O=[N+]([O-])c1ccc(N2CCN(Cc3cccc(F)c3)CC2)cc1  1.48%
16. CC(=O)N1N=C(c2ccc(N(C)C)cc2)CC1c1ccccc1 (centres unmarked)  1.34%
17. COc1cccc(C(c2c(O)nc(S)nc2O)N2CCOCC2)c1OC (centres unmarked)  1.3%
18. O=C(NC1CCN(Cc2ccccc2)CC1)C1CCC(Cn2c(=O)[nH]c3ccsc3c2=O)CC1 (centres unmarked)  1.23%
19. O=C(CSc1cccc2cccnc12)Nc1ccc2ccccc2c1  1.08%
20. CC(=O)CC(=O)Nc1c(C)cccc1C  0.912%
21. Cc1nn(CC(=O)N2CCN(C)CC2)c(=O)c2c1sc1ccccc12  0.85%
22. CCN(Cc1ccccc1)C(=O)c1ccc(CS(=O)c2ccccc2C)o1 (centres unmarked)  0.124%
23. CCCNC(c1ccccc1)c1ccncc1 (centres unmarked)  -0.192%
24. Cc1ccnc(NS(=O)(=O)c2ccc(-n3cccn3)cc2)c1  -0.231%
25. Cc1ccc(C(=O)c2cn(CC(N)=O)c3nc(C)ccc3c2=O)cc1  -0.436%
26. C=CCNC(=O)c1ccccc1NC(=O)CN(c1ccc(Cl)c(Cl)c1)S(C)(=O)=O  -0.795%
27. COc1ccc(S(=O)(=O)NC2CCCCCC2)cc1  -0.833%
28. O=C1OC(c2ccc(F)cc2)=N/C1=C\C(Cl)=C\c1ccccc1  -0.972%
29. C=Cc1ccc(Cn2c(C(=O)O)c(CNCc3ccc(OCC)cc3)c3ccccc32)cc1  -1.09%
30. CSc1ncc(F)c(=O)n1Cc1ccccc1  -1.18%
31. COc1ccc(C2N=C(N)Nc3nc4ccccc4n32)c(OC)c1 (centres unmarked)  -1.33%
32. CCN(CC)CCn1nc(C)nc1-c1ccccc1O  -1.72%
33. N=C1/C(=C/c2cccs2)C(=O)N=C2SC=C(c3ccccc3)N12  -1.93%
34. CCOc1ccc(CNCc2c(C(=O)O)n(Cc3ccccc3)c3cc(C)ccc23)cc1  -2.97%
35. COC(=O)c1ccc(C2SCC(=O)N2CCc2ccccc2)cc1 (centres unmarked)  -2.98%
36. Cc1ccc(C(=O)N/C(=C\c2cccnc2)C(=O)N2CC3CC(C2)c2cccc(=O)n2C3)cc1 (centres unmarked)  -3.02%
37. O=C(O)CSC12CC3CC(C1)CC(C(=O)O)(C3)C2  -4.24%
38. COc1ccc(-c2cc(C(F)(F)F)n3ncc(C#N)c3n2)cc1  -4.28%
39. Cc1onc(-c2ccccc2Cl)c1C(=O)NCc1nc(-c2ccccc2)no1  -4.82%
40. O=C(Nc1ccc(F)cc1)c1ccc(C#CC2(O)CCCCC2)cc1  -4.93%
41. CC(CCc1ccco1)NC(=O)c1cc2sc(Cl)cc2n1C (centres unmarked)  -5.07%
42. N#CCNC(=O)[C@H](Cc1ccccc1C(F)(F)F)NC(=O)OCc1ccccc1  -5.2%
43. C=CCn1c(=N)c(S(=O)(=O)c2ccc(C)cc2)cc2c(=O)n3cc(C)ccc3nc21  -5.2%
44. CCS(=O)(=O)N1CCN(Cc2cc(Br)ccc2O)CC1  -5.28%
45. N#Cc1ccc2c(c1)nc1c3cccc4cccc(c(=O)n21)c43  -5.78%
46. Cc1ccc(/C=C2\S/C(=N/c3ccc(C(=O)O)cc3)N(C)C2=O)cc1  -5.82%
47. COc1ccc(OC)c2c(C)cc(N3CCN(S(=O)(=O)c4ccc(C)cc4)CC3)nc12  -7.15%
48. Cc1ccc(C)c(NC(=O)CN(c2cccc(Cl)c2C)S(C)(=O)=O)c1  -7.58%
49. CC1=C(C(=O)N2CCOCC2)C(c2ccc(Cl)cc2)C2=C(O)CCCC2=N1 (centres unmarked)  -10.9%
50. Cc1n[nH]c(C)c1CCCCCCOc1ccccc1F  -11.2%
